From PubChem BioAssay AID488969 (Vanderbilt High Throughput Screening Facility, 2010)
Over roughly 110,000 compounds, “z-score” has its median near -0.1; the highest 2% begin near 2. The list shows a part of the results. Residues, ends and D or L forms follow the SMILES beside them. *: point of attachment. Boc = CC(C)(C)OC(=O)*; OBn = c1ccc(CO*)cc1

Each molecule was assayed against Metabotropic glutamate receptor 8 (Rattus norvegicus) (UniProt P70579) (assay: rat mGluR8 modulators via GIRK flux, primary screen, cell-based, thallium flux, HTS (AID 488969)). Details: HEK293 rat mGluR8, GIRK (G protein-gated inwardly rectifying potassium channel) thallium flux, FluoZin2; at 10 µM; stronger effect = higher value; submaximal glutamate (EC20) added with thallium.
Chain of UniProt P70579 (P70579 whole entry, looked up): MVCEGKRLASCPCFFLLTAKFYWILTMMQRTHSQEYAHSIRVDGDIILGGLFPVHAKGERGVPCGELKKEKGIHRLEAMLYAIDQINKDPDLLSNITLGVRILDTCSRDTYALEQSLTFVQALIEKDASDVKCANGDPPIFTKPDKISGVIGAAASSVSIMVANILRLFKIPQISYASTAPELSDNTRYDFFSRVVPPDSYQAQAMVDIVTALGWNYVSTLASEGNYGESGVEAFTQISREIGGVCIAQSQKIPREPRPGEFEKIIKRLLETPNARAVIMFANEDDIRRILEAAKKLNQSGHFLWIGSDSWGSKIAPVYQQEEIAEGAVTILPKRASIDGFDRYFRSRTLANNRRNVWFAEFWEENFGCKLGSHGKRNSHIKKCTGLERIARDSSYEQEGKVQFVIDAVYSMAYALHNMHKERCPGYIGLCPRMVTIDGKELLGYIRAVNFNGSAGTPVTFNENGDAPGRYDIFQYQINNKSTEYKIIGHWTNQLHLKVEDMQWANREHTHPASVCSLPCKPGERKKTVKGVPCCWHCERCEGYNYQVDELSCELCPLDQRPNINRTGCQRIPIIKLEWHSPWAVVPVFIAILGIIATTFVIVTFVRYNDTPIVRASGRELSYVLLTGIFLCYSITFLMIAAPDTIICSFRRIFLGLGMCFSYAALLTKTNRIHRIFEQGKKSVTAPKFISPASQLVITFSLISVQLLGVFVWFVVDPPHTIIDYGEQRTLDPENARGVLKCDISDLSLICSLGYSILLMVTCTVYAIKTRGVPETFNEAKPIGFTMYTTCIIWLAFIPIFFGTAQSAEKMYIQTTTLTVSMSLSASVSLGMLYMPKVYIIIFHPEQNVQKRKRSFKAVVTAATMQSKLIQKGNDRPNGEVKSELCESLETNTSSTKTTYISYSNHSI

| Compound | z-score |
| --- | --- |
| COc1ccc(Cc2nc(-c3ccc(Br)o3)no2)cc1OC | -0.0992 |
| COc1ccc(CN(CC(=O)NC2CCCC2)C(=O)CCC(=O)Nc2cc(C)on2)cc1 | -0.363 |
| C(=N\c1nc2ccccc2n1CCN1CCOCC1)/c1cccs1 | -0.0657 |
| O=C1CCNc2cc3ccccc3cc21 | 0.58 |
| Cc1ccccc1CNC(=O)c1ccccc1C | 0.221 |
| O=C1CC(=O)C(n2cncn2)C(c2c(F)cccc2Cl)C1 (stereo unspecified) | -0.214 |
| COc1ccccc1NC(=O)c1ccc(NS(=O)(=O)c2c(C)noc2C)cc1 | 0.641 |
| CCOC(=O)NC1(C(F)(F)F)N=C(c2ccccc2)NC1=O (stereo unspecified) | 0.265 |
| Cc1ccccc1-c1nc2ccccc2c(=O)n1C1CCS(=O)(=O)C1 (stereo unspecified) | -0.314 |
| CCC(C)(C)C1CCC(=NNC(=O)c2ccoc2C)CC1 (stereo unspecified) | -0.259 |
| C=CCn1c(Sc2nc(C)cs2)nc2c1c(=O)[nH]c(=O)n2C | -0.168 |
| COc1ccc(-c2nc3ccccc3n2Cc2ccccc2)cc1 | -0.359 |
| C=CCn1c(-c2ccc(C)cc2)nc2ccccc21 | -1.52 |
| CCC1=NN(C(=O)c2ccc(C)cc2)C(O)(c2ccc(Br)cc2)C1 (stereo unspecified) | 0.175 |
| O=P(O)(c1ccccc1)c1ccccc1O | 0.401 |
| Cc1ccccc1NS(=O)(=O)c1ccc(C)c(C(N)=O)c1 | 0.0473 |
| O=C(NCCN1CCOCC1)c1ccc(-c2ccccc2)cc1 | 0.258 |
| CCOC(=O)CN(C(=O)CSc1nnc(-c2cccc(OC)c2)o1)c1ccc(F)cc1 | 0.478 |
| OC(COC(c1ccc(F)cc1)c1ccc(F)cc1)CN1CCc2ccccc2C1 (stereo unspecified) | 0.611 |
| O=C(c1ccc2c(c1)OCO2)N1CCCC1 | -0.125 |
| COc1ccc(NC(=O)/C(C#N)=C/c2ccc3c(c2)n(C)c(=O)n3C)cc1 | 0.148 |
| CCN(Cc1ccccc1)C(c1ccc(C)cc1)c1nnnn1C(C)(C)CC (stereo unspecified) | -0.13 |
| Cc1ccc(S(=O)(=O)N2CCCN(S(=O)(=O)C3CCS(=O)(=O)C3)CC2)cc1 (stereo unspecified) | 0.0702 |
| COC(=O)c1cc(F)c(-n2cncn2)c(F)c1 | -0.0938 |

| Compound | z-score |
| --- | --- |
| O=C(Nc1nc(-c2ccc(Oc3ccccc3)cc2)cs1)C1=COCCO1 | 0.272 |
| Cc1ccc(-c2noc(C3CCCN(C(=O)c4ccccc4)C3)n2)o1 (stereo unspecified) | -0.175 |
| CCc1ccc(NC(=O)c2ccc(OC)c([N+](=O)[O-])c2)cc1 | -0.449 |
| Cc1ccc(Cn2ncc3c(NCCCN4CCOCC4)ncnc32)cc1 | -0.227 |
| CCNC(=O)CC1C(=O)N(c2ccc(F)cc2)C(=O)N1CCC(C)C (stereo unspecified) | 0.39 |
| COc1ccc2oc(=Nc3ccccc3)c(-c3nc4ccccc4[nH]3)cc2c1 | -0.114 |
| O=C(Nc1ccc(-c2nc3c(ccc4ccccc43)o2)cc1)c1ccco1 | -0.502 |
| Cc1nc2ccc(NC(=O)N3CCC(c4ccccc4)C3)cc2nc1C (stereo unspecified) | -1.73 |
| Cc1nc(-c2ccccc2)nc2[nH]ccc(=O)c12 | -1.14 |
| O=C(Nc1cccn2ncnc12)c1ccc(Cl)cc1 | -0.254 |
| CS(=O)(=O)Nc1ccccc1C(=O)c1ccccc1 | 0.313 |
| Cc1ccc(NC(=O)c2ccc(Cn3cc(Br)cn3)o2)cc1 | -1.07 |
| CCOc1ccc(CCNC(=O)C2CCN(S(=O)(=O)CC)CC2)cc1OCC | 0.236 |
| O=C(Nc1nnc(C2=COCCO2)o1)c1ccc(Cl)cc1 | 0.709 |
| NC(=O)c1nsc(C(=O)N(CC(=O)NCc2ccc(F)cc2)Cc2ccco2)c1N | -0.42 |
| C1CCC(C23CC4CC(CC(C4)C2)C3)NC1 (stereo unspecified) | 0.138 |
| N#CCCn1c(SCC(=O)NCC2CCCO2)nc2ccccc21 (stereo unspecified) | -0.368 |
| CCCCOc1ccc(CNC(=O)NS(=O)(=O)c2ccc(OCC(C)C)cc2)cc1 | -0.522 |
| CCc1nc(SCC(=O)N2CC(=O)Nc3ccccc32)c2c(C)c(C)sc2n1 | 1.93 |
| CCOC(=O)c1ccccc1NC(=O)c1cccc2c1C(=O)N(C1CCN(C(=O)OCC)CC1)C2 | -2.77 |
| CCn1nnnc1SCC(=O)Nc1ccc2c(c1)OCO2 | -0.744 |
| COc1ccc(NC2=NCCC2)cc1 | 0.235 |
| CCCCCOc1ccc(/C=c2\sc3nc(=O)c(-c4ccccc4)nn3c2=O)cc1OC | 0.106 |
| Clc1cccc2sc(N3CCOCC3)nc12 | 0.0232 |

| Compound | z-score |
| --- | --- |
| O=C(Cc1cccs1)Nc1nnc(Cc2ccccc2)s1 | -0.0843 |
| N#C/C(=C/c1ccc(Sc2nc3ccccc3[nH]2)o1)c1ccccc1F | -1.09 |
| Cn1nc(C(=O)NCc2ccccn2)c2ccccc2c1=O | -0.406 |
| CSc1ccc(CN2CCC(O)CC2)cc1 | 0.279 |
| COC(=O)Nc1ccc(S(=O)(=O)N(C)C)cc1 | -0.233 |
| CC(=O)NS(=O)(=O)c1cccnc1Nc1cccc(Cl)c1 | -0.444 |
| Cc1ccc(-n2nnnc2-c2ccco2)cc1 | -0.111 |
| O=C(/C=C/c1ccco1)Nc1ccc(-c2nc3ccccc3[nH]2)cc1 | -0.0801 |
| O=C(CN(C(=O)CCNC(=O)c1ccco1)c1ccccc1)NC1CCCC1 | -0.108 |
| c1ccc(CSc2snnc2-c2ccccc2)cc1 | -0.267 |
| CCC(C)NC(=O)Cn1c(=O)n(CCCCC(=O)NCc2ccco2)c(=O)c2ccccc21 (stereo unspecified) | -0.434 |
| CC(C)CC(NC(=O)C(NC(=O)OC(C)(C)C)C(C)C)C(=O)NC(CCC(=O)OCc1ccccc1)C(N)=O (stereo not drawn) (Boc-Val-Leu-Glu(OBn)-NH2; configuration not given here) | -0.102 |
| COc1ccc(-c2ncccc2OC(=O)C23CC4CC(CC(C4)C2)C3)cc1OC | -0.518 |
| COc1cccc2cc3c(=O)n(-c4ccccc4)nc-3oc12 | -0.396 |
| COC(=O)c1sccc1NC(=O)Cc1ccc(OC)c(OC)c1 | -0.312 |
| Cn1c(=N)c(S(=O)(=O)c2ccc(Cl)cc2)cc2c(=O)n3ccccc3nc21 | -0.0791 |
| Cc1nc(C)c(C(=O)Nc2nc3c(C)cccc3s2)o1 | -1.08 |
| CCOC(=O)c1c(NCc2ccc3c(c2)OCO3)c2ccccc2[nH]c1=O | -0.213 |
| O=C(CCn1c(=S)[nH]c2cc3c(cc2c1=O)OCO3)N1CCc2ccccc2C1 | 0.83 |
| Cc1ccc(C(=O)NC(=S)Nc2ccccc2N2CCCC2)cc1[N+](=O)[O-] | 0.134 |
| Cc1ccc(Cl)cc1NC(=O)c1cnn2c1NC(c1ccco1)CC2C(F)(F)F (stereo unspecified) | -0.148 |
| COc1cccc2c1OC1(C)CC2NC(=O)N1c1cccc(C(=O)Nc2ccc3c(c2)OCCO3)c1 (stereo unspecified) | -0.366 |
| O=C(CN1CCN(Cc2ccc(Cl)cc2)C1=O)NCCCN1CCOCC1 | -0.145 |
